Source: PubChem BioAssay (NCATS)
Values joined by “and” are separate entries in the source; they are usually repeats but may differ in a detail not shown here. Equal values may be shown once. Inconclusive results, whose numbers are uncertain, are shown with a selection of clear calls. For some of these results: A potency beside an inconclusive call is a rough fit, not a confirmed value. Active and inactive are the calls of the source. Unless noted, the call rests on the fitted dose curve; in most records, active means well fitted curve in the direction sought with a large enough effect; inconclusive means small, poorly fitted or top-dose-only effect, or another doubt; inactive means no such curve, though single readings can be large; an effect the other way counts as inactive or inconclusive.

Columns and labels:
[1] = Primary qHTS for small molecule stabilizers of the endoplasmic reticulum resident proteome: Secreted ER Calcium Modulated Protein (SERCaMP) assay (AID 1508630); details: SH-SY5Y GLuc-SERCaMP (Gaussia luciferase released on ER calcium loss) secretion, thapsigargin, luminescence; activity change, negative = inhibition: at 38.4 µM (top of the series); further: potency means the concentration at half of the fitted maximal effect; on activity change, negative = inhibition: on the % scale 0 is the no-effect control and ±100 the full control effect
How it was run: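 The SH-SY5Y reporter protocol was run at 3 concentrations up to 38.3 uM (primary) or 11 concentrations (follow-up): 16 h compound, 100 nM thapsigargin for 4 h, then extracellular luciferase luminescence.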

[2] = target: Cytochrome P450 1A2 (Homo sapiens) (UniProt P05177); assay: p450-cyp1a2 (AID 410; calls by dose curve; further: potency means the concentration at half of the fitted maximal effect); details: recombinant CYP1A2, luciferin-ME demethylation, luminescence; series mostly up to 57 µM
Sequence of UniProt P05177 (P05177 whole entry, looked up): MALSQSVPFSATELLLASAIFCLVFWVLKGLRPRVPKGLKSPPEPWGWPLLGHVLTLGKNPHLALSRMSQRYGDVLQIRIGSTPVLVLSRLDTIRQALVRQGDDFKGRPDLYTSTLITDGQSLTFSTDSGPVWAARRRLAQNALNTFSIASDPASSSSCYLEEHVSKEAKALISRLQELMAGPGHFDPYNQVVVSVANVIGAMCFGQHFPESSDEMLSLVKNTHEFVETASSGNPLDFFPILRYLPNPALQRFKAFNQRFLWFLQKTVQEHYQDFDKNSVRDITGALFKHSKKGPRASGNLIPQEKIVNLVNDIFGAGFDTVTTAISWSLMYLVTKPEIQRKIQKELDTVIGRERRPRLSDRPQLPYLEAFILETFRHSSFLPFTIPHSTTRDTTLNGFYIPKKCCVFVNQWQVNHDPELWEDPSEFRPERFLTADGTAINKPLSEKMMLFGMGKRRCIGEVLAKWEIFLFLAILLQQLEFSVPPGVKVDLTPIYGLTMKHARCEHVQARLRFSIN
How it was run: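 20nM CYP1A2, 100uM Luciferin-ME (=Km), 100mM KPO4; cpd 10 min RT; +NADPH regen, 60 min RT; stop/detect 20 min; luminescence. Normalized to furafylline 57 uM = full inhibition.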

[3] = target: 3',5'-cyclic-AMP phosphodiesterase 4B (Homo sapiens) (UniProt Q07343); assay: qHTS Assay for Inhibitors of PDE-IV (AID 607; active means well fitted activation curve with a large enough effect in the main read-out, with a control signal flat, not every such curve was filed as active; inconclusive means small, poorly fitted or top-dose-only effect, or effect the other way, or a change in a side signal; further: potency means the concentration at half of the fitted maximal effect; on activation (PDE inhibition): % of control where 0% means no effect); details: HEK293 ACTOne CNG channel cells, membrane potential fluorescence; activation (PDE inhibition): at 22.9 µM (top of the series)
Sequence of UniProt Q07343 (Q07343 whole entry, looked up): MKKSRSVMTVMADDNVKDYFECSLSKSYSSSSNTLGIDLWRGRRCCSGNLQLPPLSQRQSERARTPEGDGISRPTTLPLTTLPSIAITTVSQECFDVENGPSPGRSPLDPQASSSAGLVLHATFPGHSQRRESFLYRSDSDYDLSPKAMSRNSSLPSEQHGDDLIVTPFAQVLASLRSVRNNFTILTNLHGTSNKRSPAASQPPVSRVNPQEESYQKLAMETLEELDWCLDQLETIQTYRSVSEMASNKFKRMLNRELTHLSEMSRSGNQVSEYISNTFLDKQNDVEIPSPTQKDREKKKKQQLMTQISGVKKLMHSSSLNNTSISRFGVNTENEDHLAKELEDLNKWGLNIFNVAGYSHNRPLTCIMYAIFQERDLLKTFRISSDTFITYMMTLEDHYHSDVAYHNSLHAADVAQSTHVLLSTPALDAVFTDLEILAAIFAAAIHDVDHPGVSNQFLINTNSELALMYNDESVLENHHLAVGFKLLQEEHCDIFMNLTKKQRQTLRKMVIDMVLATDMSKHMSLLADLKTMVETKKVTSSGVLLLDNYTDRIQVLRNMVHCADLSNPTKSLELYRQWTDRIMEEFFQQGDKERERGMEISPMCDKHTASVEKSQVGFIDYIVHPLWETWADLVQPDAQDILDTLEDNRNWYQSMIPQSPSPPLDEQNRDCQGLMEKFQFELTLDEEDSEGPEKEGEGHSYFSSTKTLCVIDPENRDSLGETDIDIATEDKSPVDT
How it was run: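 The readout is membrane depolarisation from a cAMP-sensing CNG channel, detected with a potential dye at ex 535/em 590. Cells were HEK293-derived (endogenous PDE-IV) at 1000 cells/well, titrated up to 22.9 uM final.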

[4] = target: Ubiquitin carboxyl-terminal hydrolase 1 (Homo sapiens) (UniProt O94782); assay: Inhibitors of USP1/UAF1: Pilot qHTS (AID 504865); details: purified USP1/UAF1, Ub-rhodamine cleavage fluorescence; series mostly up to 114 µM;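 further: rhodamine fluorescence freed from ubiquitin-rhodamine substrate followed over time; potency means the concentration at half of the fitted maximal effect; nearly all actives have a fitted effect of over 35% in size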
Sequence of UniProt O94782 (O94782 whole entry, looked up): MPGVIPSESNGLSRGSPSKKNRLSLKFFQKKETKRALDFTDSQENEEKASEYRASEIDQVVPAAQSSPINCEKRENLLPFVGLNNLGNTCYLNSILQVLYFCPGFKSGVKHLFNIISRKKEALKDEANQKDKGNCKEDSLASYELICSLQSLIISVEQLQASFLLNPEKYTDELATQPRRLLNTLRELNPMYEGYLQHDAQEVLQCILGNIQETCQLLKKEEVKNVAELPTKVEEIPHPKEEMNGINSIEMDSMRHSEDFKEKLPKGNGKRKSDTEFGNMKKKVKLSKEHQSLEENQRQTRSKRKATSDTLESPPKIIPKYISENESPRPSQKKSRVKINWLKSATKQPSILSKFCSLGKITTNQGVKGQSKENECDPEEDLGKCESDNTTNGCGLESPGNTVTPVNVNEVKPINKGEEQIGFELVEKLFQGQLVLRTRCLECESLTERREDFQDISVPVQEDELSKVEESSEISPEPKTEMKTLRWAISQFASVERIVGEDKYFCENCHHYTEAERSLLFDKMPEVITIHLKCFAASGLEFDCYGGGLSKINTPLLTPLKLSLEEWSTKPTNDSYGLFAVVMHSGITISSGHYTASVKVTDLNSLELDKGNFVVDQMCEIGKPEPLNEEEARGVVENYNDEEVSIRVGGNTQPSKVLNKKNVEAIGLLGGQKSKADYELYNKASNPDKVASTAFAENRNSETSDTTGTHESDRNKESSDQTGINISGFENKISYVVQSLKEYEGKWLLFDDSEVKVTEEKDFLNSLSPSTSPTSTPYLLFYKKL
How it was run: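 USP1/UAF1 complex at 1 nM preincubated 15 min at room temperature with compound, then Ub-Rho substrate added at 150 nM final. Fluorescence (480/540 nm) read kinetically in 50 mM HEPES pH 7.8, 0.5 mM EDTA, 1 mM TCEP, 0.1 mg/ml BSA, 0.01% Tween-20.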

[5] = NFAT Signaling Pathway (AID 444; active means well fitted curve in either direction with a large enough effect, not every such curve was filed as active; inconclusive means small, poorly fitted or top-dose-only effect, or another doubt;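 further: carbachol stimulus at about its EC50 of 1 µM final; on the % scale 0 is the no-effect control and ±100 the full control effect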); details: Jurkat NFAT-bla M1, carbachol, beta-lactamase ratio, 5 h; at 7.69 µM (top of the series) unless noted
How it was run: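 Read-out: CCF4 FRET ratio (460 nm/530 nm) after 1 h RT dye loading, used for %activity and AC50 from titration series. Cells: Jurkat NFAT-β-lactamase/M1 line, treated with compound plus 1 uM carbachol for 5 h, 37 °C.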

[6] = target: Mitogen-activated protein kinase 10 (Mus musculus) (UniProt Q61831); assay: JNK3 AlphaScreen Assay (AID 530; active means well fitted curve in either direction with a large enough effect, not every such curve was filed as active; inconclusive means small, poorly fitted or top-dose-only effect, or another doubt;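 further: kinase came from lysate of stimulated human HepG2 cells; signal reports phosphorylation of biotinylated GST-cJun 1-79 at Ser73 with 10 µM ATP; potency means the concentration at half of the fitted maximal effect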); details: JNK3 lysate, c-Jun phosphorylation; activity change, negative = inhibition: at 57.1 µM (top of the series)
How it was run: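 Kinase buffer: 20 mM Tris-HCl pH 7.6, 10 mM MgCl2, 1 mM DTT, 0.1 mM Na3VO4, 0.01% Tween-20; ATP 10 uM. Substrate biotin-GST-cJun(1-79), enzyme from activated HepG2 lysates. Detection by Ser73 phospho-antibody AlphaScreen.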

[7] = target: Cytochrome P450 2C19 (Homo sapiens) (UniProt P33261); assay: qHTS Assay for Inhibitors and Substrates of Cytochrome P450 2C19 (AID 899); details: recombinant CYP2C19, luciferin-H EGE luminescence; series mostly up to 57.1 µM; further: potency means the concentration at half of the fitted maximal effect; nearly all actives have a fitted effect of over 60% in size
Sequence of UniProt P33261 (P33261 whole entry, looked up): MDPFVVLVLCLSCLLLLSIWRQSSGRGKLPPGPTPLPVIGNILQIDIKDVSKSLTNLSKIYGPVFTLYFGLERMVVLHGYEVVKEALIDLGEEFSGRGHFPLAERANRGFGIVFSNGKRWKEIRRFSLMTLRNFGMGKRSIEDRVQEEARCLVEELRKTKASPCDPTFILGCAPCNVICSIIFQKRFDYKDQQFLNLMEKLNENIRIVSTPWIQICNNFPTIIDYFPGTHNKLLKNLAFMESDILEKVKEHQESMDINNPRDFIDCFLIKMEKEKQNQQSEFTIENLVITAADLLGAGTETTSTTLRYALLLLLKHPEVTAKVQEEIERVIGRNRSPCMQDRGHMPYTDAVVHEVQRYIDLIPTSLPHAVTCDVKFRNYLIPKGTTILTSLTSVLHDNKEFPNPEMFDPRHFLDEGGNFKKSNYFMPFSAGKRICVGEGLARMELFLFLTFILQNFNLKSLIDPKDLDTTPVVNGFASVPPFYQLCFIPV
How it was run: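 5nM enzyme + 10uM Luciferin-H EGE (=KM), 50mM KPO4; cpd pin-transferred, 10 min 37C; NADPH regen, 60 min 37C; stopped w/ luciferin detection reagent, 20 min; luminescence. Normalized to 57uM ketoconazole (AC100).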
Tags describe the fitted curve by direction and shape.

Compound: N[C@]1(C(=O)O)CC[C@@H](C(=O)O)C1 (racemic)
- Potency [1]: inconclusive: 89.1 µM [inhibitor, full curve]

Compound: NCCc1ccccn1
- Potency [1]: inconclusive: 35.5 µM [inhibitor, partial curve, poor fit]

Compound: CC(C)(C)NC[C@@H](O)COc1cccc2[nH]c(C#N)cc12
- Potency [2]: inconclusive: 31.6 µM [decreasing]
- Potency [3]: inconclusive: 9.51 µM [activator, single point]
- Potency [1]: inconclusive: 28.2 µM [inhibitor, single point]

Compound: N#Cc1ccc(CN2CC[C@@]3(CCCNC3)C2)cc1
- Potency [2]: inconclusive: 25.1 µM [decreasing]
- Potency [1]: inconclusive: 28.2 µM [inhibitor, single point]

Compound: c1ccc(CCCCN2CCC(c3ccccc3)CC2)cc1
- Potency [3]: inconclusive: 6 µM [rising, partial curve]
- Potency [4]: inconclusive: 39.8 µM [inhibitor, partial curve, poor fit]
- Potency [1]: inconclusive: 10 µM [inhibitor, partial curve, poor fit]

Compound: N[C@@H](CCP(=O)(O)O)C(=O)O
- activity change, negative = inhibition [5]: inactive: 3.73%
- Potency [3]: inactive
- Potency [1]: inactive

Compound: O=C(CCCN1CCC2(CC1)C(=O)N(Cc1cccc(F)c1)CN2c1ccccc1)c1ccc(F)cc1
- Potency [2]: inconclusive: 39.8 µM [decreasing]
- Potency [6]: inconclusive: 0.126 µM [activator, full curve, poor fit]
- Potency [3]: inconclusive: 1.51 µM [activator, partial curve]
- Potency [7]: inconclusive: 7.94 µM [inhibitor, full curve, poor fit]
- Potency [4]: inconclusive: 11.2 µM [inhibitor, full curve]
- Potency [1]: inconclusive: 2.51 µM [inhibitor, full curve, poor fit] and inconclusive: 2.51 µM [inhibitor, partial curve, poor fit]
